# Laboratory results published in the supplement of paper PMC11876631.
# Numbering of substitutions follows the chain as printed. Names may count otherwise. ± gives the standard deviation of the averaged measurements. Laboratory Escherichia coli strains with one amino-acid change in an essential protein, pooled on minimal glucose agar with carbenicillin or gentamicin at twice the control MIC (plus kanamycin and chloramphenicol for the plasmids), 48 h. Fold change of barcode share against drug-free plates; higher = less susceptible. Active = above 20 in both replicates (the paper's putatively resistant). '<' = one read or none on drug, '>' = one read or none on a drug-free plate. Shares are relative, so most strains fall below 1 when a few take over. Listed are strains with at least 15 reads on both drug-free plates, and hits; most hits rest on fewer reference reads. Replicate rank correlation about 0.5. Edits are read from barcodes.
# B1: argA L59A (protein)
# chain: MVKERKTELVEGFRHSVPYINTHRGKTFVIMLGGEAIEHENFSSIVNDIGLLHSLGIRAVVVYGARPQIDANLAAHHHEPLYHKNIRVTDAKTLELVKQAAGTLQLDITARLSMSLNNTPLQGAHINVVSGNFIIAQPLGVDDGVDYCHSGRIRRIDEDAIHRQLDSGAIVLMGPVAVSVTGESFNLTSEEIATQLAIKLKAEKMIGFCSSQGVTNDDGDIVSELFPNEAQARVEAQEEKGDYNSGTVRFLRGAVKACRSGVRRCHLISYQEDGALLQELFSRDGIGTQIVMESAEQIRRATINDIGGILELIRPLEQQGILVRRSREQLEMEIDKFTIIQRDNTTIACAALYPFPEEKIGEMACVAVHPDYRSSSRGEVLLERIAAQAKQSGLSKLFVLTTRSIHWFQERGFTPVDIDLLPESKKQLYNYQRKSKVLMADLG
# B2: argA M173W (protein)
# chain: B1 chain with A59L, M173W
# B3: argA M173A (protein)
# chain: B1 chain with A59L, M173A
# B4: argA L59P (protein)
# chain: B1 chain with A59P
# B5: argA L59Q (protein)
# chain: B1 chain with A59Q
# B6: argA L59W (protein)
# chain: B1 chain with A59W
# B7: accA V196Q (protein)
# chain: MSLNFLDFEQPIAELEAKIDSLTAVSRQDEKLDINIDEEVHRLREKSVELTRKIFADLGAWQIAQLARHPQRPYTLDYVRLAFDEFDELAGDRAYADDKAIVGGIARLDGRPVMIIGHQKGRETKEKIRRNFGMPAPEGYRKALRLMQMAERFKMPIITFIDTPGAYPGVGAEERGQSEAIARNLREMSRLGVPVQCTVIGEGGSGGALAIGVGDKVNMLQYSTYSVISPEGCASILWKSADKAPLAAEAMGIIAPRLKELKLIDSIIPEPLGGAHRNPEAMAASLKAQLLADLADLDVLSTEDLKNRRYQRLMSYGYA
# B8: fabG V69Q (protein)
# chain: MNFEGKIALVTGASRGIGRAIAETLAARGAKVIGTATSENGAQAISDYLGANGKGLMLNVTDPASIESQLEKIRAEFGEVDILVNNAGITRDNLLMRMKDEEWNDIIETNLSSVFRLSKAVMRAMMKKRHGRIITIGSVVGTMGNGGQANYAAAKAGLIGFSKSLAREVASRGITVNVVAPGFIETDMTRALSDDQRAGILAQVPAGRLGGAQEIANAVAFLASDEAAYITGETLHVNGGMYMV
# B9: fabG I134A (protein)
# chain: B8 chain with Q69V, I134A
# B10: fabG L222Q (protein)
# chain: B8 chain with Q69V, L222Q
# B11: fabG V179A (protein)
# chain: B8 chain with Q69V, V179A
# B12: fabD I243P (protein)
# chain: MTQFAFVFPGQGSQTVGMLADMAASYPIVEETFAEASAALGYDLWALTQQGPAEELNKTWQTQPALLTASVALYRVWQQQGGKAPAMMAGHSLGEYSALVCAGVIDFADAVRLVEMRGKFMQEAVPEGTGAMAAIIGLDDASIAKACEEAAEGQVVSPVNFNSPGQVVIAGHKEAVERAGAACKAAGAKRALPLPVSVPSHCALMKPAADKLAVELAKITFNAPTVPVVNNVDVKCETNGDAPRDALVRQLYNPVQWTKSVEYMAAQGVEHLYEVGPGKVLTGLTKRIVDTLTASALNEPSAMAAALEL
# B13: fabD V255P (protein)
# chain: B12 chain with P243I, V255P
# B14: fabD V255A (protein)
# chain: B12 chain with P243I, V255A
# Target: Escherichia coli (laboratory strain)
# Assay: barcode share on antibiotic plates over drug-free plates; higher = less susceptible
# Details: antibiotic: carbenicillin; 2× MIC (3.1 µg/mL)
# Method: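 A pool of E. coli strains, each edited to carry one amino-acid change in an essential protein, was grown for 48 h on minimal glucose agar with or without antibiotic; strain barcodes were sequenced; mean of two replicates.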
row,Protein,fold change of barcode share
1,B1,0.311 ± 0.041
2,B2,> 23.8 [active]
3,B3,0.448 ± 0.15
4,B4,0.254 ± 0.051
5,B5,0.312 ± 0.069
6,B6,0.339 ± 0.027
7,B7,0.353 ± 0.12
8,B8,0.319 ± 0.17
9,B9,0.415 ± 0.21
10,B10,0.181 ± 0.074
11,B11,0.588 ± 0.2
12,B12,0.23 ± 0.09
13,B13,0.694 ± 0.74
14,B14,0.312 ± 0.07

# Same assay, conditions: antibiotic: gentamicin; 2× MIC (MIC 0.45 µg/mL)
row,Protein,fold change of barcode share
1,B1,0.00925 ± 0.0044
2,B3,0.00921 ± 0.0043
3,B4,0.00757 ± 0.0056
4,B5,0.00927 ± 0.0035
5,B6,0.0091 ± 0.00028
6,B7,< 0.00258
7,B10,< 0.0181
8,B11,0.171 ± 0.21
9,B12,< 0.00943
10,B13,< 0.00332
11,B14,< 0.0055
